Assay results reported in the supplement of paper PMC4466236.
The full ranking holds about 33,000 sequences; the median of “E-score (dimensionless, -0.5 to 0.5)” is about -0.058, and the highest 2% start at about 0.35. Some of the results follow.

system: MvaT; assay: PBM 8-mer E-score (mean of HK and ME arrays) (E-score (dimensionless, -0.5 to 0.5)); higher = stronger relative binding preference; most listed sequences are background and not binding sites
Procedure: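 Protein binding microarray: GST-tagged full-length MvaT (P. aeruginosa PAO1) bound to two universal double-stranded 60-mer arrays (ME and HK), each with a constant 25-mer primer and a variable 35-mer region covering all 8-mers. The 8-mer E-score (rank-based, range -0.5 to 0.5, >0.45 = specific binding) is the mean of the two arrays.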

Row | Sequence | PBM 8-mer E-score
1 | ATAGACAG | 0.0269
2 | TACGTAGA | 0.0901
3 | ACAGCTCA | -0.189
4 | AAGTATTC | 0.161
5 | AGAGTGCT | -0.118
6 | CTCGGTTC | -0.181
7 | ATCATAAT | 0.245
8 | CGGCGTTA | -0.0451
9 | CAGCTCAA | -0.0251
10 | ATTTGGCC | -0.102
11 | AACGCCTT | 0.033
12 | CGTCGGCA | -0.294
13 | CGTCGCAA | -0.0288
14 | CCCTGCGA | -0.245
15 | CCTACCAA | -0.271
16 | AGGGTGCA | -0.167
17 | CGGCGTGA | -0.23
18 | AACTTGAA | 0.322
19 | CTTTCTGA | 0.0775
20 | GCACAGGA | -0.145
21 | GTCAAAGA | -0.0646
22 | AATCCGCT | 0.00442
23 | AAATCACC | 0.0824
24 | ATCTCAGA | -0.0328
25 | CACCGATA | 0.151

Row | Sequence | PBM 8-mer E-score
26 | CCCTTCAG | -0.27
27 | AGTTATGG | 0.25
28 | GACTACGA | -0.0412
29 | GAAGCCCA | -0.28
30 | GATGTACC | -0.0137
31 | AACCGGGC | -0.073
32 | ATGATGCC | -0.0717
33 | ATTCACGC | -0.0952
34 | CCGGCAGG | -0.284
35 | CCTTTGAG | -0.158
36 | CTCATATC | -0.0618
37 | TATGGTCA | 0.0445
38 | CCGGTGCA | -0.305
39 | AGCTGTAA | 0.0102
40 | ATTGAGCC | -0.104
41 | CAGTCTCC | -0.134
42 | CAGTTTGC | 0.0121
43 | CATAAAGG | -0.124
44 | CCTCCTAA | -0.197
45 | ATAAAAAC | 0.274
46 | CACCAGGC | -0.208
47 | GATAGACC | -0.222
48 | TATAAGGA | 0.348
49 | TAAGTAGA | 0.144
50 | CACCTAAG | -0.143

Row | Sequence | PBM 8-mer E-score
51 | CCTTGCAC | -0.0729
52 | CTGAGCAA | -0.0891
53 | AGCCGAAG | -0.229
54 | GAACGTTC | -0.117
55 | GAGCGTAC | -0.233
56 | ATTGCCAC | 0.081
57 | AGCGATTA | 0.0596
58 | CTGAAAAG | -0.0791
59 | ATCCATGA | 0.0414
60 | CAGGACCA | -0.182
61 | CCGTGGCC | -0.215
62 | CGAGCACG | -0.196
63 | AGCGAGAT | 0.0328
64 | ATCGCTTC | -0.175
65 | CTTAAGGC | 0.00496
66 | GCAAACCA | 0.108
67 | CGTAGTTC | 0.0905
68 | GGTTAAAC | 0.0681
69 | GCCGAGGC | -0.172
70 | ATTTGGGC | 0.0219
71 | CTGGAGCC | -0.272
72 | AATGGGGT | 0.0941
73 | ATCCTAGG | -0.276
74 | CCTACAGA | -0.133
75 | ACCCCGGT | -0.235

Row | Sequence | PBM 8-mer E-score
76 | ACCAAAAA | 0.0989
77 | AACCAAAC | 0.14
78 | AGCACACC | -0.166
79 | ATTTAGGC | 0.055
80 | CAGATCTC | -0.152
81 | AGGCTCCC | -0.268
82 | TCCAACCA | -0.105
83 | ATCTAGGG | -0.083
84 | ATCGTGCC | -0.0241
85 | GACGTCTC | -0.201
86 | GAGTGAAA | 0.0201
87 | ATCGTGGA | 0.0796
88 | GAAGCGAC | -0.14
89 | AAGCCTAT | 0.18
90 | CGAGGATA | 0.00306
91 | AAAGGCGT | -0.004
92 | AACCAAGG | -0.22
93 | GCCTCAAA | -0.0856
94 | GGTTATAA | 0.344
95 | CAACCACG | -0.102
96 | CTGCAGGC | -0.293
97 | GCTAAACA | 0.0857
98 | CTATGCCA | -0.137
99 | CGTGAAAG | 0.0362
100 | ACTGCCCA | -0.105

Row | Sequence | PBM 8-mer E-score
101 | ACCAGCTA | -0.124
102 | ATTATCCC | 0.253
103 | ATGCGCAA | 0.0132
104 | AGATGATC | -0.0255
105 | GTCTGCGA | -0.147
106 | AGTCGTCG | -0.147
107 | TGCAAGCA | -0.189
108 | CGTCATTC | -0.075
109 | CTAAGTGC | 0.0641
110 | CCATAGGG | -0.258
111 | CATGCTCA | -0.224
112 | AGCCTTCG | -0.32
113 | CATGCCTC | -0.216
114 | GCCGCGTA | -0.0692
115 | AGTAGGCC | -0.153
116 | AACTGGTC | -0.0685
117 | AGAGGGTG | -0.2
118 | GTAGCTAA | -0.0172
119 | CAGGCAGA | -0.162
120 | CTAGCGGC | -0.171
121 | GCAGATGC | -0.166
122 | AATGCTTG | 0.0598
123 | TTGCTAAA | 0.202
124 | GTCCGCCA | -0.235
125 | ACATTGTA | 0.162

Row | Sequence | PBM 8-mer E-score
126 | AAGCCAAT | 0.0091
127 | CACAGGCG | -0.296
128 | TAACAAAA | 0.318
129 | TCGTTGCA | -0.0504
130 | GGCCACAC | -0.183
131 | ACTGGTAA | 0.149
132 | CATTTCAG | 0.0682
133 | GCCGCAGA | -0.284
134 | GCTCGCCA | -0.107
135 | AAACGTGA | -0.0478
136 | AGCAGTTG | -0.00134
137 | GCTCCCAA | -0.14
138 | TGCACCAA | 0.0426
139 | TATGTTCA | 0.186
140 | AGGCTGCC | -0.298
141 | CATACACC | 0.06
142 | AACGTTGA | 0.0809
143 | AACACACG | -0.0166
144 | CGATTGTA | 0.0896
145 | ATTGCCTC | -0.021
146 | CAAGGGTA | -0.108
147 | CGGAGAGC | -0.215
148 | AGCTAAAT | 0.0519
149 | GAAAACTA | 0.159
150 | ATATGGCC | -0.0872

Row | Sequence | PBM 8-mer E-score
151 | CTCGATTA | 0.203
152 | CGGGCGTC | -0.294
153 | GCAAGGCA | -0.0943
154 | AGAGTTGC | 0.00592
155 | GGAAACAC | 0.0664
156 | ACGTGGCT | -0.164
157 | CGTCTTTC | -0.136
158 | ACTTTCTG | 0.158
159 | CGACGAAC | 0.00938
160 | CGCTTATA | 0.263
161 | GCAGTAGA | -0.125
162 | AAGCAAAG | -0.0179
163 | AGATGCCC | -0.176
164 | CTGTGTCA | -0.0988
165 | CCTATTAC | 0.151
166 | CGCGATCA | -0.248
167 | CACCTCTG | -0.112
168 | ACGACCCT | -0.204
169 | AGGTGGTA | -0.0312
170 | CTCTCCAC | -0.153
171 | ACGTTTCT | -0.0736
172 | GCGAATGA | 0.0883
